Results: publication PMC6919601, “Identification of Plasmodium dipeptidyl aminopeptidase allosteric inhibitors by high throughput screening” (PLoS ONE, 2019)
About 230 (0.21%) of roughly 110,000 compounds showed an effect of 50% or more. The list shows a part of the results.
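Note: 30 min substrate incubation versus DMSO and 10 µM JCP410 controls.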

The compounds below were run against DPAP1 (Plasmodium falciparum, UniProt Q8IIJ9) (assay: primary screen, percent inhibition; read by cleavage of a fluorogenic dipeptide substrate; higher = more effect of the substance).
DPAP1, sequence (Q8IIJ9 whole entry, looked up): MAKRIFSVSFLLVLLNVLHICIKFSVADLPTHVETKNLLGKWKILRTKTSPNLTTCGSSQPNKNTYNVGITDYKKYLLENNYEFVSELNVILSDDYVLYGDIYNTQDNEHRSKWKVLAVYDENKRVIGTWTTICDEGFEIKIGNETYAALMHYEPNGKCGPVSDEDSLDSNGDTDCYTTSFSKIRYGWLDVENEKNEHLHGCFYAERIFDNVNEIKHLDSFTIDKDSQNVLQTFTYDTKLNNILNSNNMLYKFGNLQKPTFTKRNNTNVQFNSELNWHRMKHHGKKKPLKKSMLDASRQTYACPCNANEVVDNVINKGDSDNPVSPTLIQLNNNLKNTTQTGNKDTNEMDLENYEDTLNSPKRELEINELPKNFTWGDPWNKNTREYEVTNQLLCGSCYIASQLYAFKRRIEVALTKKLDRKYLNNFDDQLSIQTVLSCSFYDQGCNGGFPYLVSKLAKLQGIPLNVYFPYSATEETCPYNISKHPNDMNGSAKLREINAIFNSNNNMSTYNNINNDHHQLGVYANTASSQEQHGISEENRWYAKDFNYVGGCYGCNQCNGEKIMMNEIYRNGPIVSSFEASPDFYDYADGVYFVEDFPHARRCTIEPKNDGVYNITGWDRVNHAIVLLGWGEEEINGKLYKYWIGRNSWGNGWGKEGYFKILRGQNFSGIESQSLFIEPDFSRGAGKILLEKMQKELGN
Parameters: species or system P. falciparum D10 trophozoite lysates; single well
With `COc1cccc(C(=O)N2c3ccccc3C(N(C(C)=O)c3ccccc3)CC2C)c1` (stereo not drawn) the “% Inhibition @ 10 uM” value was 0.851%.
With `N#CCc1ccc(NC(=O)c2ccccc2F)cc1` the “% Inhibition @ 10 uM” value was -3.72%.
In the case of `CCN1C(=O)c2ccc(F)cc2C1=O`, the “% Inhibition @ 10 uM” value is reported as 0.962%.
For `COc1cc(OC)nc(NC(=O)CSc2nc3nc(C)cc(C)n3n2)n1`, the “% Inhibition @ 10 uM” value was 1.67%.
For `Cc1cnc(C)c(NC2CCCC2)n1`, the “% Inhibition @ 10 uM” value was -4.8%.
For `CCC(=O)CC(O)c1ccc([N+](=O)[O-])cc1` (stereo not drawn), the “% Inhibition @ 10 uM” value was 1.49%.
For `COc1ccccc1NC1=C(Cl)C(=O)N(c2cc(Cl)ccc2OC)C1=O`, the “% Inhibition @ 10 uM” value was 2.36%.
In the case of `COc1ccccc1N1CCN(C(=O)CCc2ccccc2)CC1`, the “% Inhibition @ 10 uM” value is reported as -2.17%.
For `COc1ccc(N2C(=O)C(Cl)=C(Nc3cccc(Cl)c3)C2=O)cc1`, the “% Inhibition @ 10 uM” value was -4.48%.
With `CC(=O)N1CCn2c1nc(N(C)C)nc2=O` the “% Inhibition @ 10 uM” value was 5.2%.
With `CCOC(=O)N1CCC(Nc2cc(C)c(C#N)c3nc4ccccc4n23)CC1` the “% Inhibition @ 10 uM” value was -3.75%.
`CCSc1ncc(Cl)c(C(=O)Nc2nnc(C(C)C)s2)n1` was tested, and the “% Inhibition @ 10 uM” value was -2.85%.
With `O=C(NC1CCCCC1)C1CCCN(S(=O)(=O)c2cccc3cccnc23)C1` (stereo not drawn) the “% Inhibition @ 10 uM” value was -12.4%.
With `COc1ccc(C2C(C#N)=C(N)Oc3[nH]nc(C(C)(C)C)c32)cc1` (stereo not drawn) the “% Inhibition @ 10 uM” value was -0.661%.
With `Cc1nc2ccc(S(=O)(=O)NC(C(=O)N3CCC(C)CC3)C(C)C)cc2s1` (stereo not drawn) the “% Inhibition @ 10 uM” value was -9.07%.
`CCOc1ccccc1CN1CCN(C)CC1` was tested, and the “% Inhibition @ 10 uM” value was -1.86%.
With `Fc1ccccc1-c1nnc(-c2cccc(C(F)(F)F)c2)o1` the “% Inhibition @ 10 uM” value was -4.3%.
`N#Cc1c(C(F)(F)F)cc(-c2ccccc2)nc1SCc1nc(N)nc(N2CCOCC2)n1` was tested, and the “% Inhibition @ 10 uM” value was 5.18%.
`O=C1CC(Nc2ccccc2)=NN1c1ccccc1` was tested, and the “% Inhibition @ 10 uM” value was 2.45%.
For `CCCC(=O)Nc1ccc(C=C2C(=O)c3ccccc3C2=O)cc1`, the “% Inhibition @ 10 uM” value was 1.4%.
With `COc1cc(C2C3=C(O)CC(C)(C)CC3=Nc3nc4ccccc4n32)cc(OC)c1OC` (stereo not drawn) the “% Inhibition @ 10 uM” value was -1.62%.
With `CCCNC(=O)c1cnn2c(C)c(Cc3ccc(Cl)cc3)c(C)nc12` the “% Inhibition @ 10 uM” value was -2.14%.
`Cc1cc(C)c2nc(Nc3nc(C)cc(C)n3)nc(C)c2c1` was tested, and the “% Inhibition @ 10 uM” value was 9.41%.
`C=CCn1c(SCCCC)nc2c1c(=O)n(C)c(=O)n2C` was tested, and the “% Inhibition @ 10 uM” value was -6.38%.
In the case of `CCOC(=O)C1CCCN(Cc2ccc(OC)c(Br)c2)C1` (stereo not drawn), the “% Inhibition @ 10 uM” value is reported as -0.0404%.
`Cc1cc2nc(-c3cccc(NC(=O)Cn4cnc5c(=O)n(C)c(=O)n(C)c54)c3)oc2cc1C` was tested, and the “% Inhibition @ 10 uM” value was -2.28%.
In the case of `CC(C)CCNC(=O)Cn1cnc2onc(-c3ccc(F)cc3)c2c1=O`, the “% Inhibition @ 10 uM” value is reported as 0.535%.
For `CCOc1ccc(C(=O)N2CCN(c3ccc(N4CCOCC4)nn3)CC2)cc1OCC`, the “% Inhibition @ 10 uM” value was -7.13%.
`COc1ccc(C(=O)Nc2ccccc2C(=O)N2CCC(C)CC2)cc1` was tested, and the “% Inhibition @ 10 uM” value was -4.14%.
With `COc1ccc(C(=O)N/C(=C/c2ccc(Br)cc2)C(=O)NC(C)(C)C)cc1` the “% Inhibition @ 10 uM” value was -0.988%.
For `Cc1noc(C)c1CCN1CNc2c(c(=O)n(C)c(=O)n2C)C1`, the “% Inhibition @ 10 uM” value was -4.98%.
`O=C(CS(=O)(=O)c1ccc2ccccc2c1)N1CCCCCC1` was tested, and the “% Inhibition @ 10 uM” value was -9.39%.
For `COc1cccc(NC(=O)COc2ccc3ccccc3c2Br)c1`, the “% Inhibition @ 10 uM” value was -2.56%.
`NC(=O)COc1cccc2cccnc12` was tested, and the “% Inhibition @ 10 uM” value was 3.74%.
`O=C(Nc1ccc(C(F)(F)F)cc1)C1CCN(S(=O)(=O)c2ccc(Cl)cc2)CC1` was tested, and the “% Inhibition @ 10 uM” value was 9.97%.
`CC(C)(C)c1ccccc1OCCCN1CCCCC1` was tested, and the “% Inhibition @ 10 uM” value was 3%.
For `Cc1ccc(C(C)C)c(OCC(=O)c2c(O)oc3ccccc3c2=O)c1`, the “% Inhibition @ 10 uM” value was 0.0539%.
With `c1csc(CCN2CCC3(CC2)OCCO3)c1` the “% Inhibition @ 10 uM” value was -2.03%.
In the case of `CCOc1ccc(C(=O)NC2CCCCCC2)cc1`, the “% Inhibition @ 10 uM” value is reported as 4.38%.
For `Fc1ccc(CC2NCCn3cccc32)cc1` (stereo not drawn), the “% Inhibition @ 10 uM” value was 3.18%.
`COc1ccc(-c2c(C)nn3c(N4CCC(C(=O)Nc5cc(C)on5)CC4)cc(C)nc23)cc1OC` was tested, and the “% Inhibition @ 10 uM” value was -0.138%.
With `CC(C)c1ccccc1NC(=O)CN(c1cccc(F)c1)S(C)(=O)=O` the “% Inhibition @ 10 uM” value was -1.6%.
In the case of `N=C(NOS(=O)(=O)c1ccccc1)c1cccnc1`, the “% Inhibition @ 10 uM” value is reported as 3.8%.
For `CCCn1c(=O)c2sccc2n2c(CCCC(=O)NCC(C)c3ccccc3)nnc12` (stereo not drawn), the “% Inhibition @ 10 uM” value was -3.58%.
With `Cc1c(NC(=O)c2ccc(Cl)cc2)c(=O)n(-c2ccccc2)n1C` the “% Inhibition @ 10 uM” value was 1.41%.
`COc1ccc(C(=O)Nc2sc(C(=O)N(C)C)c(C)c2C#N)c(OC)c1` was tested, and the “% Inhibition @ 10 uM” value was 4.33%.
With `O=C(OCc1ccccc1Cl)c1ccc(-n2cnnc2)cc1` the “% Inhibition @ 10 uM” value was -4.04%.
With `Cc1nn(C)c(-c2nnc(S)n2Cc2ccccc2)c1Cl` the “% Inhibition @ 10 uM” value was 3.94%.
With `COc1cccc(-n2c(C)c(C(C)=O)c(C(C)=O)c2C)c1` the “% Inhibition @ 10 uM” value was 1%.
With `O=S(=O)(c1ccc(Cl)c2ccccc12)N1CCCCCC1` the “% Inhibition @ 10 uM” value was 5.41%.
For `CC1=CC2=NC(=O)/C(=C\c3cn(CCOc4ccc(C)cc4)c4ccccc34)C(=N)N2O1`, the “% Inhibition @ 10 uM” value was -5.1%.
For `NC(=O)C1CCN(C(=O)c2[nH]c3ccccc3c2Sc2ccc(Cl)cc2)CC1`, the “% Inhibition @ 10 uM” value was -5.97%.
With `O=C(Nc1ccc(F)cc1)c1ccc2c(c1)C(=O)N(Cc1cccnc1)C2=O` the “% Inhibition @ 10 uM” value was 8.03%.
`CCCC(=O)NC(c1ccc(Cl)cc1Cl)c1ccc2cccnc2c1O` (stereo not drawn) was tested, and the “% Inhibition @ 10 uM” value was 0.884%.
With `COc1ccc(NC(=O)C2=C(C)NC(=O)NC2c2ccc(Cl)cc2Cl)cc1` (stereo not drawn) the “% Inhibition @ 10 uM” value was -3.5%.
For `COc1cc(CN2CCN(Cc3ccc(SC)cc3)CC2)cc2c1OCO2`, the “% Inhibition @ 10 uM” value was 4.07%.
With `CCOC(=O)c1oc2cc(Cl)c(O)c(CN(C)C)c2c1C` the “% Inhibition @ 10 uM” value was -2.2%.
For `O=c1/c(=C/c2ccccn2)sc2nc3ccccc3n12`, the “% Inhibition @ 10 uM” value was -2.87%.
In the case of `COCCNC(=O)c1cc(-c2ccc3c(c2)OCO3)on1`, the “% Inhibition @ 10 uM” value is reported as 0.628%.
With `COc1ccc2[nH]c3c(=O)n(CCCCC(=O)NCCCOC(C)C)c(=S)[nH]c3c2c1` the “% Inhibition @ 10 uM” value was 4.14%.
For `CCOc1ccc2oc(=O)cc(CN3CCCCC3)c2c1`, the “% Inhibition @ 10 uM” value was -3.49%.
For `COCc1cc(O)n2nc(C)c(-c3ccccc3)c2n1`, the “% Inhibition @ 10 uM” value was -1.28%.
`COC(=O)c1ccc(Cn2nnc3sc(-c4ccccc4)cc3c2=O)cc1` was tested, and the “% Inhibition @ 10 uM” value was 2.41%.
With `Cc1cccc(OCC(=O)Nc2ccc(Oc3ccccc3)cc2)c1` the “% Inhibition @ 10 uM” value was 0.755%.
`Nc1ncnc2[nH]c(N3CCCCC3)nc12` was tested, and the “% Inhibition @ 10 uM” value was 0.177%.
With `COc1ccc2c(CNCCc3ccccc3OC)c(C(=O)O)n(Cc3cccc(F)c3)c2c1` the “% Inhibition @ 10 uM” value was 3.3%.
